Results reported in the supplement of paper PMC8728848.
The list shows a part of the results.

Key:
Assay in all cases: glycan array binding signal (z-score within array); higher = stronger binding
Conditions in all cases: glycan notation: IUPAC condensed, linker removed
[1] = target: Neu5Gc(a2-3)Gal(b1-4)[Fuc(a1-3)]GlcNAc
Outline: (§1)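 Arrays were curated from the Consortium for Functional Glycomics database, 3228 in total, and kept only where the protein sequence was available. Binding is expressed as a within-array Z-score. This score was averaged across arrays of the same protein sequence at different concentrations or buffers and across linkers, and negative values can be read as non-binding.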

[2] = target: Neu5Gc(a2-6)Gal(b1-4)GlcNAc
Outline: as §1

Neu5Gc(a2-6)GalNAc = target: Neu5Gc(a2-6)GalNAc
Outline: as §1

[3] = target: Neu5Gc(b2-6)Gal(b1-4)GlcNAc
Outline: as §1

B1: E-Selectin (Mus musculus), Q00690 (protein)
chain: MNASRFLSALVFVLLAGESTAWYYNASSELMTYDEASAYCQRDYTHLVAIQNKEEINYLNSNLKHSPSYYWIGIRKVNNVWIWVGTGKPLTEEAQNWAPGEPNNKQRNEDCVEIYIQRTKDSGMWNDERCNKKKLALCYTASCTNASCSGHGECIETINSYTCKCHPGFLGPNCEQAVTCKPQEHPDYGSLNCSHPFGPFSYNSSCSFGCKRGYLPSSMETTVRCTSSGEWSAPAPACHVVECEALTHPAHGIRKCSSNPGSYPWNTTCTFDCVEGYRRVGAQNLQCTSSGIWDNETPSCKAVTCDAIPQPQNGFVSCSHSTAGELAFKSSCNFTCEQSFTLQGPAQVECSAQGQWTPQIPVCKAVQCEALSAPQQGNMKCLPSASGPFQNGSSCEFSCEEGFELKGSRRLQCGPRGEWDSKKPTCSAVKCDDVPRPQNGVMECAHATTGEFTYKSSCAFQCNEGFSLHGSAQLECTSQGKWTQEVPSCQVVQCPSLDVPGKMNMSCSGTAVFGTVCEFTCPDDWTLNGSAVLTCGATGRWSGMPPTCEAPVSPTRPLVVALSAAGTSLLTSSSLLYLLMRYFRKKAKKFVPASSCQSLQSFENYHVPSYNV
[1]
  glycan array binding signal (z-score): 2.71
[2]
  glycan array binding signal (z-score): -0.355
Neu5Gc(a2-6)GalNAc
  glycan array binding signal (z-score): -0.253
[3]
  glycan array binding signal (z-score): -0.17
